Test results: the supplement of paper PMC3334620
Whole data set: some 33,000 sequences, median “E-score (-0.5 to 0.5)” near -0.056, cut for the highest 2% near 0.38. The list shows a part of the results.

The sequences below were run against Stb4 (UniProt P50104) (assay: PBM E-score (8-mer binding enrichment) (E-score (-0.5 to 0.5)); higher = stronger / more preferred TF binding; most listed sequences are background and not binding sites). Conditions: protein concentration: 200 nM; construct: GST-DNA-binding domain.
Outline: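 PURExpress in vitro transcription/translation supplied GST-tagged yeast transcription factors, either full-length or DNA-binding domain. Applied at about 100-200 nM to universal all-10-mer Agilent arrays double-stranded by primer extension, the bound protein was detected with fluorescent anti-GST. E-scores, modified Wilcoxon-Mann-Whitney statistics, were given by the Universal PBM Analysis Suite to ungapped eight-base words pooled with their reverse complements after masliner normalisation.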
In the case of CCTACGGC, the “PBM E-score” value is reported as 0.0539.
ATGCGATC was tested, and the “PBM E-score” value was 0.0425.
GATCATAA was tested, and the “PBM E-score” value was 0.139.
With AAACATAC the “PBM E-score” value was -0.0963.
In the case of AGTCCTAC, the “PBM E-score” value is reported as 0.0892.
With CATTAATC the “PBM E-score” value was 0.0334.
With GGAGGTCA the “PBM E-score” value was -0.0321.
In the case of AGGACCAT, the “PBM E-score” value is reported as -0.172.
In the case of GCGAACCA, the “PBM E-score” value is reported as -0.0506.
CCACGCAG was tested, and the “PBM E-score” value was -0.12.
In the case of ATGAAAGG, the “PBM E-score” value is reported as -0.0295.
AAAGATGC was tested, and the “PBM E-score” value was -0.143.
For ATACCGAT, the “PBM E-score” value was 0.285.
For TAAGAAGA, the “PBM E-score” value was 0.0882.
In the case of AATTATAA, the “PBM E-score” value is reported as 0.0209.
With TACCTTGA the “PBM E-score” value was -0.133.
CGACTCCC was tested, and the “PBM E-score” value was 0.0182.
For ACCATACT, the “PBM E-score” value was -0.0349.
In the case of AGTATGGG, the “PBM E-score” value is reported as -0.156.
In the case of AAATAGGC, the “PBM E-score” value is reported as 0.0259.
For ATGTCAAG, the “PBM E-score” value was -0.117.
For CTAATAGC, the “PBM E-score” value was -0.205.
In the case of CCCAAATA, the “PBM E-score” value is reported as -0.201.
In the case of GAAGACCC, the “PBM E-score” value is reported as -0.0306.
For TAAATGGA, the “PBM E-score” value was -0.104.
AAGTGCGC was tested, and the “PBM E-score” value was 0.0487.
In the case of GTATAAAC, the “PBM E-score” value is reported as 0.0179.
In the case of GAGGCGCA, the “PBM E-score” value is reported as 0.0247.
With CATAAGAA the “PBM E-score” value was -0.00014.
GGAGCCTA was tested, and the “PBM E-score” value was 0.142.
For ATACATAG, the “PBM E-score” value was -0.198.
With CATGACAG the “PBM E-score” value was -0.199.
ATAAAACC was tested, and the “PBM E-score” value was 0.0449.
CTACGCGA was tested, and the “PBM E-score” value was -0.0663.
AACTTCAA was tested, and the “PBM E-score” value was -0.0236.
With ATAAGAGA the “PBM E-score” value was 0.132.
With GTGAAATA the “PBM E-score” value was -0.0312.
With GGACACCC the “PBM E-score” value was 0.0635.
In the case of AAATGAGT, the “PBM E-score” value is reported as 0.104.
For ACGAAAGT, the “PBM E-score” value was 0.0657.
With GCAAGCGC the “PBM E-score” value was -0.0232.
In the case of AACCAATC, the “PBM E-score” value is reported as 0.0662.
AAGCGAGC was tested, and the “PBM E-score” value was 0.0586.
TGGACCCA was tested, and the “PBM E-score” value was -0.154.
In the case of AGATACAT, the “PBM E-score” value is reported as -0.155.
With TCACGGGA the “PBM E-score” value was 0.189.
With TGCGCCCA the “PBM E-score” value was -0.208.
With TGACAAAA the “PBM E-score” value was -0.143.
With ACCCCTCA the “PBM E-score” value was -0.119.
With GGAAAGTA the “PBM E-score” value was 0.172.
In the case of CCCGTCAG, the “PBM E-score” value is reported as 0.124.
In the case of AACTGTGA, the “PBM E-score” value is reported as 0.0538.
CAGCTTAA was tested, and the “PBM E-score” value was -0.0768.
In the case of GAACCTGA, the “PBM E-score” value is reported as -0.0761.
In the case of ACACGACT, the “PBM E-score” value is reported as -0.114.
With GGACAACA the “PBM E-score” value was -0.216.
With ACCTTCGA the “PBM E-score” value was -0.171.
In the case of CATCGCAA, the “PBM E-score” value is reported as -0.218.
GTGCTGTA was tested, and the “PBM E-score” value was -0.141.
GAGACCGC was tested, and the “PBM E-score” value was -0.0808.
For CGCTTGTC, the “PBM E-score” value was 0.0319.
In the case of CATGAATC, the “PBM E-score” value is reported as -0.184.
For CCAGCATC, the “PBM E-score” value was -0.0776.
AATCGTAA was tested, and the “PBM E-score” value was -0.17.
CTACCCCA was tested, and the “PBM E-score” value was -0.148.
AGCAGCGG was tested, and the “PBM E-score” value was 0.162.
For ACCGCTCT, the “PBM E-score” value was -0.0173.
With CTGATCTA the “PBM E-score” value was -0.0129.
For ATAAAGAA, the “PBM E-score” value was -0.103.
With ACTCCGAA the “PBM E-score” value was 0.385.
With AAAAGGTA the “PBM E-score” value was -0.0677.
CATGTAAA was tested, and the “PBM E-score” value was -0.232.
With ACTATTAG the “PBM E-score” value was 0.0221.
For GGAAGACA, the “PBM E-score” value was 0.0955.
For AATACCAT, the “PBM E-score” value was -0.115.
TAGTCATA was tested, and the “PBM E-score” value was -0.161.
For TACCCGGA, the “PBM E-score” value was 0.415.
With CCGAGTCA the “PBM E-score” value was 0.381.
In the case of GATAAAAC, the “PBM E-score” value is reported as 0.214.
For CCAATGGC, the “PBM E-score” value was -0.0284.
For AGTCAGCC, the “PBM E-score” value was -0.161.
In the case of AGGAGTGG, the “PBM E-score” value is reported as -0.161.
For CACTAGGC, the “PBM E-score” value was -0.135.
With CACCAAAA the “PBM E-score” value was -0.274.
For TAAGGGCA, the “PBM E-score” value was -0.00253.
CAATCATA was tested, and the “PBM E-score” value was -0.00184.
With ATCGGTAG the “PBM E-score” value was 0.277.
For ACCAGGGC, the “PBM E-score” value was -0.221.
ATTCAAGC was tested, and the “PBM E-score” value was -0.0456.
For AACACTGC, the “PBM E-score” value was 0.0726.
For ACTACGGA, the “PBM E-score” value was 0.266.
TCTGGTCA was tested, and the “PBM E-score” value was -0.191.
In the case of AAGTTCCA, the “PBM E-score” value is reported as -0.0508.
In the case of ATAGTTTG, the “PBM E-score” value is reported as -0.153.
For CAAGGGCC, the “PBM E-score” value was -0.161.
In the case of AGCCACGC, the “PBM E-score” value is reported as -0.132.
In the case of CAAATGAA, the “PBM E-score” value is reported as -0.136.
For TCCCCCCA, the “PBM E-score” value was -0.196.
For CCCGCAGA, the “PBM E-score” value was 0.158.
With AATCCTAG the “PBM E-score” value was -0.0711.
GCCTTGAA was tested, and the “PBM E-score” value was -0.312.
With ATGCGAGG the “PBM E-score” value was -0.224.
For GCGGTTTA, the “PBM E-score” value was -0.0154.
ATGCGATA was tested, and the “PBM E-score” value was -0.041.
AAAACCCC was tested, and the “PBM E-score” value was 0.0806.
For TCTACACA, the “PBM E-score” value was -0.0869.
With CCCGGTCG the “PBM E-score” value was 0.267.
With ATGGCTCC the “PBM E-score” value was -0.0525.
AAACGTTC was tested, and the “PBM E-score” value was -0.0502.
AGCTGAGA was tested, and the “PBM E-score” value was -0.234.
With AGCTAGAA the “PBM E-score” value was -0.209.
With GGACGACC the “PBM E-score” value was -0.0611.
For CAGCAACG, the “PBM E-score” value was -0.0727.
For AAATTGCC, the “PBM E-score” value was 0.19.
For TAAAGTTA, the “PBM E-score” value was -0.0583.
With GAGGCTCC the “PBM E-score” value was 0.00692.
For CCGCGACC, the “PBM E-score” value was 0.0824.
In the case of TACTAGAA, the “PBM E-score” value is reported as -0.0607.
With GGTTAGAA the “PBM E-score” value was -0.00133.
ATCTCGTA was tested, and the “PBM E-score” value was -0.154.
GCTAGCTA was tested, and the “PBM E-score” value was -0.0957.
With CGAGGTGC the “PBM E-score” value was 0.299.
With AACGGAGT the “PBM E-score” value was 0.197.
In the case of ACGTAAGC, the “PBM E-score” value is reported as -0.163.
In the case of CGAAATAC, the “PBM E-score” value is reported as 0.141.
In the case of GTTGCGTA, the “PBM E-score” value is reported as 0.0526.
With AAGCTATA the “PBM E-score” value was -0.164.
CAAGGGTC was tested, and the “PBM E-score” value was -0.0149.
For GGCTCTAA, the “PBM E-score” value was -0.0213.
With AGCAAATA the “PBM E-score” value was -0.192.
In the case of CAGCCATG, the “PBM E-score” value is reported as -0.284.
CGTAACGC was tested, and the “PBM E-score” value was 0.0075.
For CCCGCTTA, the “PBM E-score” value was 0.0362.
In the case of GCAGCTCC, the “PBM E-score” value is reported as 0.0859.
For AGGTCAAG, the “PBM E-score” value was -0.101.
GGTATGAA was tested, and the “PBM E-score” value was -0.0419.
For AAGATTGC, the “PBM E-score” value was 0.0143.
With CTGCGTGA the “PBM E-score” value was -0.179.
GGGTTGCA was tested, and the “PBM E-score” value was -0.057.
In the case of CGGTATTC, the “PBM E-score” value is reported as 0.213.
In the case of CCAGATAG, the “PBM E-score” value is reported as -0.0744.
With AAAGTTAT the “PBM E-score” value was -0.0457.
ATGGAGAC was tested, and the “PBM E-score” value was -0.114.
ATTATATC was tested, and the “PBM E-score” value was 0.055.
In the case of CATGCACC, the “PBM E-score” value is reported as -0.135.
With CTCGAGTC the “PBM E-score” value was -0.0623.
For GAGCCCAA, the “PBM E-score” value was -0.16.
In the case of CCCACCGA, the “PBM E-score” value is reported as 0.0946.
With GGCAGATA the “PBM E-score” value was 0.234.
For GCCGTCGC, the “PBM E-score” value was -0.0773.
With CTATCTGA the “PBM E-score” value was -0.228.
In the case of CGATTTCC, the “PBM E-score” value is reported as 0.255.
In the case of CAGGTCAC, the “PBM E-score” value is reported as -0.283.
For ACGCTTTA, the “PBM E-score” value was -0.187.
For TAATCTGA, the “PBM E-score” value was -0.201.
For AGTAACTC, the “PBM E-score” value was -0.0281.
GTCCCACA was tested, and the “PBM E-score” value was 0.0892.
With AACTTGAG the “PBM E-score” value was -0.166.
With ATGTGCTA the “PBM E-score” value was 0.0962.
CGACCATC was tested, and the “PBM E-score” value was -0.0396.
For CATCCACA, the “PBM E-score” value was -0.108.
ACGCTAAG was tested, and the “PBM E-score” value was -0.354.
GGACAGGA was tested, and the “PBM E-score” value was -0.0503.
With ATCACGAT the “PBM E-score” value was -0.132.
In the case of GTAGTACA, the “PBM E-score” value is reported as -0.23.
With GTGTGAAA the “PBM E-score” value was 0.0372.
For ATCGAAGG, the “PBM E-score” value was -0.15.
In the case of CTTTTATC, the “PBM E-score” value is reported as 0.0869.
With GAAACTCC the “PBM E-score” value was 0.0704.
For ATTTCGAA, the “PBM E-score” value was -0.0575.
For CTTGTCCC, the “PBM E-score” value was 0.174.
GGTGAAAC was tested, and the “PBM E-score” value was 0.108.
